Results on 57 compounds are retold here after publication PMC4336329 (PLoS ONE, 2015).

In all, about 310,000 compounds went through this assay and about 14,000 (4.5%) showed an effect of 50% or more. The effect is printed as a negative number. This is one part of the list.
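Note: peak tail current of the secondary pulse compared with the same well before compound.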

The target in the experiment is human ether-à-go-go-related gene (hERG) potassium channel (human, UniProt Q12809). The experiment in a line: primary screen, population patch clamp on CHO cells stably expressing hERG.
Sequence of human ether-à-go-go-related gene (hERG) potassium channel (Q12809 whole entry, looked up): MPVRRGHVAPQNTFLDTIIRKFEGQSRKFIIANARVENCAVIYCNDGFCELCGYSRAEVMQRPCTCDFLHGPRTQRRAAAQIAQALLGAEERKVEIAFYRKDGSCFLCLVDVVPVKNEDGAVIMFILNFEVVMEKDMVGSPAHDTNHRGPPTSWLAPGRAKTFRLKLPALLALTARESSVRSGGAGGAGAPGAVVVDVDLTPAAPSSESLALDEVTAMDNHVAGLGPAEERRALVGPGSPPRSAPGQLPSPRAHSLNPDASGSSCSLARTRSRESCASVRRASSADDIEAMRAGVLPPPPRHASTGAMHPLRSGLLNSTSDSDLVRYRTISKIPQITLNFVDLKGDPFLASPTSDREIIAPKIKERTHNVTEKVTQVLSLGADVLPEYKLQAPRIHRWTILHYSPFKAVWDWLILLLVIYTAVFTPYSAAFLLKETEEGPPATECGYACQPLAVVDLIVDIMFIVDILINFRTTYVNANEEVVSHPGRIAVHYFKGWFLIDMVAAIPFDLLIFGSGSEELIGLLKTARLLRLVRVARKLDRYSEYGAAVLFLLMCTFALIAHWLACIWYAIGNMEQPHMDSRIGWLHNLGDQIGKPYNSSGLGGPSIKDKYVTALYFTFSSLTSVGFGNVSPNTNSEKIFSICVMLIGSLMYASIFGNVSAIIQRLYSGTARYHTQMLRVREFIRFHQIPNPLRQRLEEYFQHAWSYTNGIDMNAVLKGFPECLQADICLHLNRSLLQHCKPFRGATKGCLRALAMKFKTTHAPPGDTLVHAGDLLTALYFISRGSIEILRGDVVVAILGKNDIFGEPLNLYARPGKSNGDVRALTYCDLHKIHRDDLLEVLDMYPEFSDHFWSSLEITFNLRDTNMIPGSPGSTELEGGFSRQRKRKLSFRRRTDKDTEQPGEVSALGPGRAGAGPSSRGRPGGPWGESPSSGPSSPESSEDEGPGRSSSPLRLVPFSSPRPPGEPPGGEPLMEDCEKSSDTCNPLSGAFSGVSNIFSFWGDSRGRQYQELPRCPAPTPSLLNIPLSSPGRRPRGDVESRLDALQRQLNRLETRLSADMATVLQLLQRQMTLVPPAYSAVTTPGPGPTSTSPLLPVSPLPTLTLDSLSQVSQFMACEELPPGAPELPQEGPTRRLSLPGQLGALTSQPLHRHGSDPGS
For `Cc1ccc(-c2ccc(C(=O)NCCCNC(=O)c3cnccn3)o2)cc1Cl`, the “hERG current change (%, negative = inhibition) at 10uM” value was 25.5%.

For the compound `CCCSc1nc2c(cnn2-c2ccc(C)c(C)c2)c(=O)[nH]1`, the “hERG current change (%, negative = inhibition) at 10uM” value was 7.52%.

For the compound `O=C(COC(=O)Cc1ccc(Cl)cc1)Nc1ccc2[nH]c(=O)[nH]c2c1`, the “hERG current change (%, negative = inhibition) at 10uM” value amounted to 2.65%.

On to `COc1cc(CN2CCN(C(=O)CC(C)C)CC2)cc(OC)c1O.O=C(O)C(=O)O`, for which the “hERG current change (%, negative = inhibition) at 10uM” value is given as -0.00662%.

In the case of `Cc1ccc(C)c2[nH]c(=O)c(CN(Cc3nnnn3C3CCCCC3)CC3CCCO3)cc12` (stereo not drawn), the “hERG current change (%, negative = inhibition) at 10uM” value was -7.62%.

For `COc1ccc(/C=C/C(=O)NC(=S)N2C[C@H]3C[C@H](C2)c2cccc(=O)n2C3)cc1OC`, the “hERG current change (%, negative = inhibition) at 10uM” value is listed as 6.67%.

On to `O=C(Cc1c[nH]c2ccccc12)Nc1nnc(C2CC2)s1`, for which the “hERG current change (%, negative = inhibition) at 10uM” value is -4.79%.

In the case of `Nc1c(N(CCC2=CCCCC2)C(=O)Cc2ccc(F)cc2)c(=O)[nH]c(=O)n1Cc1ccccc1`, the “hERG current change (%, negative = inhibition) at 10uM” value was -26.6%.

For the compound `CCCN(CCC)CCCNC(=O)C1c2cc(OC)c(OC)cc2C(=O)N(C)C1c1cccs1` (stereo not drawn), the “hERG current change (%, negative = inhibition) at 10uM” value is listed as 9.81%.

Consider `O=C(NC(NNc1ccc([N+](=O)[O-])cc1)(C(F)(F)F)C(F)(F)F)c1ccc(Cl)cc1`, for which the “hERG current change (%, negative = inhibition) at 10uM” value is -8.5%.

For the compound `O=C(COC(=O)c1ccc(O)cc1)c1ccc(S(=O)(=O)N2CCCCC2)cc1`, the “hERG current change (%, negative = inhibition) at 10uM” value is 5.37%.

Turning to `CC(C)CNC(=O)CN1C(=O)NC2(CCc3ccccc32)C1=O` (stereo not drawn), the “hERG current change (%, negative = inhibition) at 10uM” value was determined as 22%.

Take `CCOC(=O)C(NC(=O)C1C(C)N1S(=O)(=O)c1ccc(C)cc1)C(=O)OCC` (stereo not drawn): the “hERG current change (%, negative = inhibition) at 10uM” value is listed as 5.38%.

As for `O=C(O)c1ccc(N=NN2CCCCCC2)cc1`, the “hERG current change (%, negative = inhibition) at 10uM” value is 22.6%.

In the case of `COc1ccc(CNS(=O)(=O)CCNC(=O)c2cccc(OC)c2)cc1`, the “hERG current change (%, negative = inhibition) at 10uM” value is -78.1%.

Consider `CC(=O)NC(Cc1ccc(F)cc1)C(=O)O` (stereo not drawn), for which the “hERG current change (%, negative = inhibition) at 10uM” value is -24.1%.

Regarding `Cc1cc2[nH]cnc2c([N+](=O)[O-])c1C`, the “hERG current change (%, negative = inhibition) at 10uM” value is listed as -24.5%.

For `CCC(=O)N1c2ccc(S(=O)(=O)N3CCOCC3)cc2CC1C` (stereo not drawn), the “hERG current change (%, negative = inhibition) at 10uM” value is on record as 18.1%.

As for `CN(Cc1ccccc1)C(=O)COC(=O)C1CCN(S(=O)(=O)c2ccc3c(c2)OCCO3)CC1`, the “hERG current change (%, negative = inhibition) at 10uM” value was -8.41%.

As for `CCOC(=O)c1c(C)[nH]c(C(=O)NCc2ccccn2)c1C`, the “hERG current change (%, negative = inhibition) at 10uM” value was -6.54%.

As for `C=CCNC(=O)C1CCN(c2ccc(S(=O)(=O)N3CCOCC3)cc2Cl)CC1`, the “hERG current change (%, negative = inhibition) at 10uM” value is -21.1%.

In the case of `CCOC(=O)C1=C(COC(=O)CSc2ccc(C)cc2)NC(=O)NC1C` (stereo not drawn), the “hERG current change (%, negative = inhibition) at 10uM” value was -18.9%.

As to `O=C(CNC(=O)c1ccncc1)Nc1ccc(F)c(F)c1`, the “hERG current change (%, negative = inhibition) at 10uM” value is -29.9%.

`CC1(C)OC(=O)C(=CNc2ccccc2F)C(=O)O1`: the “hERG current change (%, negative = inhibition) at 10uM” value is -3.78%.

As to `Cc1ccc(OCc2nc3c4c(ncn3n2)-c2ccccc2CC42CCCC2)cc1`, the “hERG current change (%, negative = inhibition) at 10uM” value turned out to be 7.02%.

Turning to `CCCOc1ccc(CCC(=O)N/N=C/c2ccco2)cc1`, the “hERG current change (%, negative = inhibition) at 10uM” value is reported as -2.52%.

For the compound `O=C(COC(=O)/C=C/c1ccc(Cl)cc1)Nc1ccc2c(c1)OCCO2`, the “hERG current change (%, negative = inhibition) at 10uM” value was 18.1%.

`C=CCNC(=S)N/N=C(\C)c1cc(OC)c(OC)c(OC)c1`: the “hERG current change (%, negative = inhibition) at 10uM” value was 9.63%.

For the compound `COc1ccccc1NC(=O)C(C)OC(=O)CCCOc1ccccc1` (stereo not drawn), the “hERG current change (%, negative = inhibition) at 10uM” value is -5.61%.

Regarding `Cc1ccccc1C(=O)OC1OC(=O)C(Cl)=C1N1CCOCC1` (stereo not drawn), the “hERG current change (%, negative = inhibition) at 10uM” value is listed as -20.1%.

Take `Cc1nnc(SCCn2c(N3CCN(C)CC3)nc3c2c(=O)n(C)c(=O)n3C)s1`: the “hERG current change (%, negative = inhibition) at 10uM” value came to 0.487%.

Turning to `COc1cccc(/C=C/C2=CC(C)(C)NC(=S)N2)c1`, the “hERG current change (%, negative = inhibition) at 10uM” value was 16%.

`O=S(=O)(c1ccc(N2CCN(CCO)CC2)nc1)N1CCCCC1`: the “hERG current change (%, negative = inhibition) at 10uM” value was determined as 11%.

In the case of `CC(O)[C@H]1CN=C(N)N1CCc1cc(C(F)(F)F)cc(C(F)(F)F)c1` (stereo partly drawn), the “hERG current change (%, negative = inhibition) at 10uM” value was found to be 13.1%.

In the case of `O=C(CC1SC(=Nc2ccccc2)N(Cc2ccccn2)C1=O)Nc1ccc(Br)cc1` (stereo not drawn), the “hERG current change (%, negative = inhibition) at 10uM” value stood at 16.5%.

For the compound `CCC(=O)c1cc(F)c(N2CCN(C(=O)c3ccco3)CC2)cc1C`, the “hERG current change (%, negative = inhibition) at 10uM” value is -14.4%.

Turning to `Cc1ccccc1NC(=O)Cc1ccccc1`, the “hERG current change (%, negative = inhibition) at 10uM” value was 17.9%.

On to `Cc1ccc(NC(=S)N2CCN(S(=O)(=O)c3ccccc3)CC2)cc1C`, for which the “hERG current change (%, negative = inhibition) at 10uM” value was 11.6%.

Turning to `O=C(COC(=O)c1cccs1)c1ccc2c(c1)OCCO2`, the “hERG current change (%, negative = inhibition) at 10uM” value was -6.42%.

For `O=c1c(C/C=C/c2ccccc2)c(O)nc2n1CCCS2`, the “hERG current change (%, negative = inhibition) at 10uM” value was -20.8%.

On to `CC(C)Cc1nnc(NS(=O)(=O)Cc2ccccc2)s1`, for which the “hERG current change (%, negative = inhibition) at 10uM” value was 17.4%.

Take `Cc1nnc(NC(=O)Cc2cccs2)s1`: the “hERG current change (%, negative = inhibition) at 10uM” value is listed as -15.2%.

On to `Nc1ccc(NC(=O)c2cccs2)c(Cl)c1`, for which the “hERG current change (%, negative = inhibition) at 10uM” value was determined as 7.42%.

With `Cc1cc(NC(=O)CN2CCCCC2)n(-c2ccccc2)n1`, the “hERG current change (%, negative = inhibition) at 10uM” value was 6.65%.

For the compound `CCOC(=O)c1cc(NC(=O)CSc2nnc(CN3CCOCC3)n2C)ccc1Cl`, the “hERG current change (%, negative = inhibition) at 10uM” value is on record as -34.5%.

Consider `CCN(CC)C(=O)c1cc2c(=O)n3ccccc3nc2s1`, for which the “hERG current change (%, negative = inhibition) at 10uM” value is listed as -20.2%.

As for `Cc1ccc(-c2csc(NCCc3nc4cc(Cl)c(Cl)cc4n3CCCO)n2)cc1`, the “hERG current change (%, negative = inhibition) at 10uM” value is -1.21%.

`CCN(CC)c1cc(NCCO)c([N+](=O)[O-])c2nonc12`: the “hERG current change (%, negative = inhibition) at 10uM” value is given as -25.1%.

Consider `CC(=O)Nc1cccc(C(=O)N/N=C/c2cccnc2)c1`, for which the “hERG current change (%, negative = inhibition) at 10uM” value is 2.32%.

As for `O=C(O)/C=C\C(=O)Nc1ccccc1C#Cc1ccc(Br)cc1`, the “hERG current change (%, negative = inhibition) at 10uM” value stood at 14.3%.

Regarding `CCO[C@H]1OC(C(=O)O)=C[C@@H](c2coc3ccccc3c2=O)[C@@H]1CCCO`, the “hERG current change (%, negative = inhibition) at 10uM” value turned out to be 7.63%.

For `C=CCN1C(=O)C(Cc2ccc(OC)cc2)SC1=Nc1ccc(C(=O)O)cc1` (stereo not drawn), the “hERG current change (%, negative = inhibition) at 10uM” value is given as 5.21%.

With `O=C(NC(Cc1ccccc1)C(=O)N1CCc2ccccc2C1)c1ccccc1` (stereo not drawn), the “hERG current change (%, negative = inhibition) at 10uM” value is listed as -9.48%.

As for `Cn1c(CCc2ccccc2)nnc1SCC(=O)N1CCOCC1`, the “hERG current change (%, negative = inhibition) at 10uM” value was -2.56%.

For `COc1ccc(N2C(=O)C(CC(=O)O)S/C2=C\C(C)=O)cc1` (stereo not drawn), the “hERG current change (%, negative = inhibition) at 10uM” value was 13%.

As to `O=C(COc1ccc(/C=N/NC(=O)c2ccccc2)cc1)Nc1ccc([N+](=O)[O-])cc1`, the “hERG current change (%, negative = inhibition) at 10uM” value is 15.2%.

`Cc1ccc(C(=O)N/C(=C/c2cccs2)C(=O)NCc2ccco2)cc1`: the “hERG current change (%, negative = inhibition) at 10uM” value is reported as -15.8%.
